Assays:
[1] = molecular target: T1, murine pro-myostatin (mouse, UniProt O08689 25-376); assay: BLI, antibody on anti-human Fc capture tip, analyte 200 to 0.82 nM, global fit
T1 construct: Recombinant in the BLI and reporter assays; endogenous mouse protein in the immunoprecipitation and immunofluorescence experiments; also called proGDF8 (mouse); Murine ProGDF8

[2] = molecular target: T2, murine latent myostatin (mouse, UniProt O08689 25-267; O08689 268-376, Non-covalent complex of prodomain and growth factor; disulfide-linked homodimer, one copy of each chain is given.); assay: as above
T2 construct: recombinant in BLI, endogenous in serum immunoprecipitation; also called Murine Latent GDF8; copies: 2 + 2

[3] = molecular target: T1, murine pro-myostatin; assay: cell-based or functional assay
[4] = molecular target: T1, murine pro-myostatin; assay: cell-based or functional assay; remark: listed apart in the source
[5] = molecular target: T1, murine pro-myostatin; assay: ForteBio Octet BLI kinetics
[6] = molecular target: CD64 (FcgRI) (UniProt P12314 16-288, limits assumed); assay: ELISA, relative to Ab1-G1
[7] = molecular target: T3, C1q (UniProt P02745; P02746; P02747); assay: ELISA, relative to Ab1-G1
T3 construct: the three subunits are from general knowledge; also called complement component C1q

[8] = molecular target: T1, murine pro-myostatin; assay: ForteBio BLI
[9] = molecular target: T2, murine latent myostatin; assay: ForteBio BLI
[10] = molecular target: murine pro + latent GDF11 (murine, UniProt Q9Z1W4 21-405, limits assumed); assay: ForteBio BLI
[11] = molecular target: murine latent GDF11 (murine, UniProt Q9Z1W4 21-296; Q9Z1W4 297-405, limits assumed); assay: ForteBio BLI

B1: Ab2 (germlined Ab1), IgG4 (S228P)/lambda (antibody)
heavy: QVQLVESGGGVVQPGRSLRLSCAASGFTFSSYGMHWVRQAPGKGLEWVAVISYDGSNKYYADSVKGRFTISRDNSKNTLYLQMNSLRAEDTAVYYCARDLLVRFLEWSHYYGMDVWGQGTTVTVSSASTKGPSVFPLAPCSRSTSESTAALGCLVKDYFPEPVTVSWNSGALTSGVHTFPAVLQSSGLYSLSSVVTVPSSSLGTKTYTCNVDHKPSNTKVDKRV[human IgG4 Fc with S228P (EU numbers) not shown]
light: QSVLTQPPSASGTPGQRVTISCSGSSSNIGSNTVHWYQQLPGTAPKLLIYSDNQRPSGVPDRFSGSKSGTSASLAISGLQSEDEADYYCAAWDDSLNGVFGGGTKLTVLGQPKAAPSVTLFPPSSEELQANKATLVCLISDFYPGAVTVAWKADSSPVKAGVETTTPSKQSNNKYAASSYLSLTPEQWKSHRSYSCQVTHEGSTVEKTVAPTECS
[1]
  Kd: 2.3 nM
[2]
  Kd: 2 nM
[3]
  EC50 Activation Assay: 174 nM
[4]
  Activity Assay - 293T cells EC50: 714 nM
[5]
  Kd: 8.39 nM
[6]
  Relative CD64 Binding @ EC50(%): 5%
[7]
  Relative C1q Binding @ EC50(%): 8%
[8]
  Kd: 2.3 nM
[9]
  Kd: 2 nM
[10]
  binding result: no binding (tested: 200 nM)
[11]
  binding result: no binding (tested: 200 nM)

From US20260242455A1 (SCHOLAR ROCK, published 2026)
